# In all, about 33,000 sequences were measured (“E-score (-0.5 to 0.5)”: median about -0.035, highest 2% from about 0.34 on). The list shows a part of the results.
# Target: T1, Mot3 (UniProt P54785)
# T1 sequence: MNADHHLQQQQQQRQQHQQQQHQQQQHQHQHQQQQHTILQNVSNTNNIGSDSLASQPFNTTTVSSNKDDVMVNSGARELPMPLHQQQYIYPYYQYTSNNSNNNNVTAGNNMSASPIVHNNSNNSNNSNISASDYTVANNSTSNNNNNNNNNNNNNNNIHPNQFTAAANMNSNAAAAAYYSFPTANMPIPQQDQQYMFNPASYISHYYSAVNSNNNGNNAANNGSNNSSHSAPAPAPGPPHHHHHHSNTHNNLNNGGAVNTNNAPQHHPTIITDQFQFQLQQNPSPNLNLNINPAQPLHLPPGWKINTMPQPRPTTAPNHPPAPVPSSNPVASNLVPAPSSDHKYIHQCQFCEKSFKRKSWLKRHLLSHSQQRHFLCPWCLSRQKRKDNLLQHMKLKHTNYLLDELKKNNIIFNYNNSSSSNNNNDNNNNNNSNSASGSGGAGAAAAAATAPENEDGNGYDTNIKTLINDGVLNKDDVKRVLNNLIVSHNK
# Assay: PBM E-score (8-mer binding enrichment) (E-score (-0.5 to 0.5)); higher = stronger / more preferred TF binding; most listed sequences are background and not binding sites
# Conditions: protein concentration: 200 nM; construct: GST-full length
# Method: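 Universal 'all 10-mer' protein binding microarrays (Agilent AMADID 015681) probed with GST-tagged S. cerevisiae TFs (full-length or DBD) made by in vitro transcription/translation (PURExpress), about 100-200 nM. Bound TF was detected with fluorescent anti-GST. Each ungapped 8-mer (which stands for itself and its reverse complement) is scored by the PBM enrichment score (E-score), a modified Wilcoxon-Mann-Whitney statistic from -0.5 to +0.5, computed with the Universal PBM Analysis Suite. Scale: above 0.35 generally sequence-specific binding.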
row,Sequence,PBM E-score
1,GCGGCCAC,-0.231
2,CTACACCC,0.12
3,CGGTCGCC,-0.154
4,CTGAGGGC,-0.244
5,ATAAATAT,0.0384
6,ACCACACT,-0.227
7,TTACCCAA,-0.0266
8,CGGTATCC,-0.225
9,ATCCCTCC,-0.172
10,CGTGTAAC,0.351
11,GACGAAGA,0.113
12,ATAATTGA,0.0245
13,TAGCTTGA,-0.219
14,TAGTGCGA,-0.114
15,CCCTCGCG,-0.248
16,ACCCCTAT,-0.205
17,AAGATGAA,-0.0005
18,ATCAAGAA,0.0842
19,AGTATCCA,-0.198
20,CGATGTGC,-0.0386
21,CAGTGTGA,-0.0111
22,GTCAACGA,0.00887
23,CGACCTGC,-0.108
24,AGCTACTG,-0.072
25,TGATTACA,0.311

row,Sequence,PBM E-score
1,TAACGCCA,0.0747
2,CAACCTCC,-0.262
3,ATGCCTAG,0.199
4,CTGTATGA,-0.0792
5,ACGTAGAG,0.223
6,CGATCCGA,-0.316
7,CTGCGCAA,0.00055
8,TAACTACA,0.281
9,CAAAACAC,0.2
10,CACCCTCC,-0.357
11,CCAGTAGC,-0.166
12,GATTGTTA,0.173
13,CCTCAGCG,-0.137
14,AGTGGAAG,-0.119
15,ATGAACTG,0.0964
16,CCCGACTC,-0.0361
17,AAACCTTC,-0.122
18,AACGAGCT,-0.0281
19,GTGCGTTA,0.16
20,TGATACAA,0.0668
21,GATGGCCA,-0.226
22,ACTCCCAC,-0.172
23,GACAGGAA,0.374
24,CACCCTGA,-0.0388
25,ACCATTCT,-0.258

row,Sequence,PBM E-score
1,ACGGGGCG,-0.144
2,CATGGCGC,-0.139
3,CACGACGC,0.0834
4,CGCCCGCC,-0.293
5,ACGACTAG,-0.0453
6,AACGCATG,0.179
7,ATACATCG,0.197
8,CGCATCCG,-0.144
9,AGATTTGC,0.0727
10,ATCCATTA,-0.0227
11,AGTACAGC,-0.113
12,AAAACCGC,-0.144
13,ACTCCTCA,-0.0455
14,AGGTCGTA,0.0905
15,AACAAGTT,0.126
16,AGTGCAGA,-0.23
17,AAACTCCA,0.163
18,ATACAATC,-0.0586
19,CTCACACC,-0.25
20,CGTGTGGC,-0.211
21,AGTCATGG,-0.17
22,ACTACCAG,-0.00138
23,CCCTGCTA,-0.165
24,GCTATGCC,-0.028
25,TCTATCAA,0.126

row,Sequence,PBM E-score
1,AATAAAGT,0.046
2,AGAGAATG,-0.198
3,ACCATGCG,-0.183
4,GGGTCGCA,-0.00482
5,ATCGCCAA,-0.129
6,CGCCTATC,-0.00366
7,GCTCTTGA,-0.221
8,ATGTCCTC,0.034
9,CATTGGTA,-0.196
10,AATTGTCG,-0.115
11,CGACGTGC,-0.0196
12,ATCGTCTA,-0.0581
13,CGAACTTA,-0.0308
14,AAGGAGTA,-0.0587
15,CCTCGAAA,0.0518
16,AGTCGACA,0.0723
17,CTTAACTC,0.194
18,TATGGCCA,-0.0242
19,CGGCCAGC,-0.294
20,AGAGCTCT,-0.183
21,AGCCCGAG,-0.243
22,GGCGATGA,-0.179
23,ACCAGCAC,-0.0633
24,CCAAGCCG,-0.251
25,ACTTCCCT,-0.0558

row,Sequence,PBM E-score
1,CAGGCGTA,0.137
2,CCCAGAGC,-0.281
3,GGCATACA,0.05
4,ACAGTCAC,0.212
5,TAAGTTGA,0.0854
6,GGTTCACA,-0.015
7,GAGTGCCC,0.036
8,AAGGTATA,0.113
9,ATCCGCGA,-0.0116
10,CACCCACC,-0.0829
11,CCCCAGAA,-0.205
12,ACCAATGG,-0.236
13,TAAGCGCA,0.026
14,CGTCTGTC,-0.207
15,CTACAAGA,0.146
16,AATACTCG,0.00449
17,CGCTTTCA,-0.00824
18,GACATGAA,0.274
19,CGCGCACG,-0.0382
20,CTTCTAAC,-0.0665
21,AACTATAA,0.021
22,TAAGCCTA,0.0259
23,CAGCTCCG,-0.1
24,CTCTAACC,-0.154
25,ACTTGGCA,-0.0172

row,Sequence,PBM E-score
1,CGTAGCAG,-0.155
2,GGACTTCA,-0.382
3,ACTTCGCG,0.0415
4,ACTACAAG,0.258
5,AGCCTATG,0.0839
6,GTTCTCAA,0.146
7,CGACGCAC,0.0929
8,GATGGACC,-0.0623
9,CATGACCC,-0.0801
10,CTCAACCC,-0.227
11,GCCACCAC,-0.245
12,CACTTGCC,0.144
13,CTCAGGTC,-0.11
14,CTGCCTAA,0.258
15,GGAACAGA,0.155
16,ATTTATGG,-0.00114
17,ATGACCCG,-0.155
18,GCATACGA,-0.0798
19,CCGCAGAA,-0.0629
20,CATGTAGC,0.276
21,AAGCGTGC,0.193
22,TCTTTGCA,0.0106
23,CGTTTTCC,0.108
24,CGAACGAA,-0.196
25,AGCTCTCA,-0.0899

row,Sequence,PBM E-score
1,GTTTTGCA,0.0564
2,AGTTTCTG,0.0079
3,GAGCTTCA,-0.152
4,ACGAATTG,0.0886
5,CTAAGCAA,-0.0673
6,GTTTAGTA,0.105
7,AAGCTCTG,-0.152
8,CAAGTTTA,0.0105
9,GCGGTTAC,-0.0321
10,GATCGAAC,-0.09
11,CCCAGTGC,-0.111
12,AGTCTTTG,-0.137
13,ACCACTCG,0.0316
14,CCCTCCTC,-0.372
15,GTAGTGGA,0.114
16,ACCCTAGC,-0.124
17,ATACATAC,0.28
18,AAATAAGT,0.0509
19,ATAGCAGC,-0.314
20,AATCCGAG,-0.0353
21,AGGAATGC,-0.0374
22,AACAGCAC,0.1
